Among the data in the supplement of paper PMC6609913 are normalised cell viability values, retold here.

Where a name gives a salt, the structure may show the parent alone. ± gives the standard deviation of the averaged measurements. Whole data set: some 1,300 compounds, median “normalised cell viability” near 1, cut for the lowest 2% near 0.15. The list shows a part of the results.

The assay concerns V-C8 + BRCA2 (BRCA2-proficient hamster cells). The assay is described as follows: normalised cell viability (fraction of plate median); higher = more viable cells (less toxic). The conditions noted are these: 5 µM. Summed up:
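Library drugs, held as 10 mM stocks in DMSO, were diluted to 5 μM in 100 μl medium and added to 96-well plates of V-C8 hamster cells, either lacking BRCA2 or with BRCA2 restored, 24 h after seeding. Plates ran for 3 days (screen 1) or 6 days (screen 2), alongside solvent-only wells. Viability came from a resazurin readout, median-plate normalised, as the mean of triplicate wells.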

Take `c1ccc(CC2=NCCN2)cc1` [Tolazoline hydrochloride]: the normalised cell viability worked out at 0.982 ± 0.014 (treatment time: 3 days) and 0.957 ± 0.063 (treatment time: 6 days).

Regarding `Clc1ccc2c(c1)C(N1CCNCC1)=Nc1ccccc1O2` [Amoxapine], the normalised cell viability stood at 0.827 ± 0.043 (treatment time: 3 days) and 0.786 ± 0.087 (treatment time: 6 days).

For the compound `O=C1c2ccccc2C(=O)C1c1ccccc1` [Phenindione], the normalised cell viability is, setting by setting: (treatment time: 3 days) 1 ± 0.026; (treatment time: 6 days) 1.05 ± 0.037.

`O=C(O)CCc1nc(-c2ccccc2)c(-c2ccccc2)o1` [Oxaprozin]: the normalised cell viability amounted to 1.06 ± 0.11 (treatment time: 3 days) and 1.12 ± 0.078 (treatment time: 6 days).

As for `CC[C@H]1OC(=O)[C@H](C)[C@@H](O[C@H]2C[C@@](C)(OC)[C@@H](O)[C@H](C)O2)[C@H](C)[C@@H](O[C@@H]2O[C@H](C)C[C@H](N(C)C)[C@H]2O)[C@](C)(O)C[C@@H](C)C(=O)[C@H](C)[C@@H](O)[C@]1(C)O` [Erythromycin], the normalised cell viability stood at 0.912 ± 0.017 (treatment time: 3 days) and 0.985 ± 0.051 (treatment time: 6 days).

As to `CCCSc1ccc2[nH]c(NC(=O)OC)nc2c1` [Albendazole], the normalised cell viability is, setting by setting: (treatment time: 3 days) 0.198 ± 0.0084; (treatment time: 6 days) 0.183 ± 0.011.

For the compound `Cc1c(Cl)cccc1Nc1ccccc1C(=O)O` [Tolfenamic acid], the normalised cell viability is, setting by setting: (treatment time: 3 days) 0.962 ± 0.086; (treatment time: 6 days) 1.12 ± 0.073.

As for `CO[C@H]1/C=C/O[C@@]2(C)Oc3c(C)c(O)c4c(O)c(c(/C=N/N5CCN(C)CC5)c(O)c4c3C2=O)NC(=O)/C(C)=C\C=C\[C@H](C)[C@H](O)[C@@H](C)[C@@H](O)[C@@H](C)[C@H](OC(C)=O)[C@@H]1C` [Rifampicin], the normalised cell viability (treatment time: 3 days) turned out to be 1.01 ± 0.029 and the normalised cell viability (treatment time: 6 days) came to 0.989 ± 0.036.

`Cc1ccc(N(CC2=NCCN2)c2cccc(O)c2)cc1` [Phentolamine hydrochloride]: the normalised cell viability runs as follows: (treatment time: 3 days) 0.9957 ± 0.0093; (treatment time: 6 days) 0.989 ± 0.11.

Turning to `CCc1ccc(CCOc2ccc(CC3SC(=O)NC3=O)cc2)nc1` (centres undefined) [Pioglitazone], the normalised cell viability runs as follows: (treatment time: 3 days) 0.354 ± 0.027; (treatment time: 6 days) 0.259 ± 0.025.

As to `C[C@H](N[C@@H](CCc1ccccc1)C(=O)O)C(=O)N1CCC[C@H]1C(=O)O` [Enalaprilat dihydrate], the normalised cell viability amounted to 1.01 ± 0.011 (treatment time: 3 days) and 1.09 ± 0.077 (treatment time: 6 days).

As to `CN(C)[C@@H]1C(O)=C(C(N)=O)C(=O)[C@@]2(O)C(O)=C3C(=O)c4c(O)cccc4[C@@](C)(O)[C@H]3C[C@@H]12` [Tetracycline hydrochloride], the normalised cell viability by setting is: (treatment time: 3 days) 1.1 ± 0.052; (treatment time: 6 days) 1.03 ± 0.058.

For `CC(=O)[C@@]12O[C@](C)(c3ccccc3)O[C@@H]1C[C@H]1[C@@H]3CCC4=CC(=O)CC[C@]4(C)[C@H]3CC[C@@]12C` [Algestone acetophenide], the normalised cell viability (treatment time: 3 days) was 0.968 ± 0.025 and the normalised cell viability (treatment time: 6 days) was found to be 1.07 ± 0.1.

Consider `COCCCC/C(=N\OCCN)c1ccc(C(F)(F)F)cc1` [Fluvoxamine maleate], for which the normalised cell viability is, setting by setting: (treatment time: 3 days) 0.97 ± 0.029; (treatment time: 6 days) 1.17 ± 0.13.

Turning to `COC(=O)[C@H](c1ccccc1Cl)N1CCc2sccc2C1` [Clopidogrel], the normalised cell viability came out at 1.01 ± 0.053 (treatment time: 3 days) and 1.04 ± 0.021 (treatment time: 6 days).

Take `C[C@]12CCC(=O)C=C1CC[C@@H]1[C@@H]2C(=O)C[C@@]2(C)[C@H]1CC[C@]2(O)C(=O)CO` [Cortisone]: the normalised cell viability (treatment time: 3 days) was 0.997 ± 0.02 and the normalised cell viability (treatment time: 6 days) amounted to 1.06 ± 0.063.

Regarding `COc1ccc(CC(C)NCC(O)c2ccc(O)c(NC=O)c2)cc1` (centres undefined) [Formoterol fumarate], the normalised cell viability runs as follows: (treatment time: 3 days) 1.04 ± 0.051; (treatment time: 6 days) 1 ± 0.074.

On to `Cc1c(O)c(=O)n(-c2ccccc2)n1C` [Antipyrine, 4-hydroxy], for which the normalised cell viability by setting is: (treatment time: 3 days) 0.999 ± 0.0087; (treatment time: 6 days) 0.961 ± 0.11.

For `CC(C)OC(=O)C(C)(C)Oc1ccc(C(=O)c2ccc(Cl)cc2)cc1` [Fenofibrate], the normalised cell viability stood at 1.04 ± 0.038 (treatment time: 3 days) and 1.08 ± 0.091 (treatment time: 6 days).

Regarding `CC=CC1=C(C(=O)O)N2C(=O)[C@@H](NC(=O)[C@H](N)c3ccc(O)cc3)[C@H]2SC1` [Cefprozil], the normalised cell viability (treatment time: 3 days) was 0.951 ± 0.071 and the normalised cell viability (treatment time: 6 days) came to 0.908 ± 0.072.

In the case of `Cc1cc2c(s1)Nc1ccccc1N=C2N1CCN(C)CC1` [Olanzapine], the normalised cell viability is, setting by setting: (treatment time: 3 days) 0.865 ± 0.054; (treatment time: 6 days) 0.735 ± 0.034.

As to `CC(N)CCCC(C)(C)O` (centres undefined) [Heptaminol hydrochloride], the normalised cell viability runs as follows: (treatment time: 3 days) 1.02 ± 0.011; (treatment time: 6 days) 0.978 ± 0.079.

For the compound `CN1CCCN=C1/C=C/c1cccc(O)c1` [Oxantel pamoate], the normalised cell viability is, setting by setting: (treatment time: 3 days) 0.952 ± 0.081; (treatment time: 6 days) 1.04 ± 0.08.

Regarding `O=C(O)c1cc(/N=N/c2ccc(S(=O)(=O)Nc3ccccn3)cc2)ccc1O` [Sulfasalazine], the normalised cell viability is, setting by setting: (treatment time: 3 days) 1.03 ± 0.061; (treatment time: 6 days) 1.04 ± 0.059.

As for `CN/C(=N\CCSCc1nc[nH]c1C)NC#N` [Cimetidine], the normalised cell viability reads like this: (treatment time: 3 days) 1.02 ± 0.016; (treatment time: 6 days) 1.04 ± 0.013.

With `CCc1cccc(CC)c1NC(=O)CN(CC(=O)O)CC(=O)O` [Etifenin], the normalised cell viability is, setting by setting: (treatment time: 3 days) 1.04 ± 0.02; (treatment time: 6 days) 1.05 ± 0.043.

Turning to `CCCCc1ccc2[nH]c(NC(=O)OC)nc2c1` [Parbendazole], the normalised cell viability was determined as 0.169 ± 0.014 (treatment time: 3 days) and 0.19 ± 0.025 (treatment time: 6 days).

In the case of `Nc1ncnc2c1ncn2C1OC(COP(=O)(O)O)C(O)C1O` (centres undefined) [Adenosine 5'-monophosphate monohydrate], the normalised cell viability (treatment time: 3 days) came out at 1.21 ± 0.031 and the normalised cell viability (treatment time: 6 days) worked out at 1.02 ± 0.024.

With `CN1CCCN(C(c2ccccc2)c2ccc(Cl)cc2)CC1` (centres undefined) [Homochlorcyclizine dihydrochloride], the normalised cell viability by setting is: (treatment time: 3 days) 0.802 ± 0.018; (treatment time: 6 days) 0.875 ± 0.045.

`C[C@@H]1C[C@H]2[C@@H]3CCC4=CC(=O)C=C[C@]4(C)[C@@]3(Cl)[C@@H](O)C[C@]2(C)[C@@]1(OC(=O)c1ccco1)C(=O)CCl` [Mometasone furoate]: the normalised cell viability by setting is: (treatment time: 3 days) 1.01 ± 0.013; (treatment time: 6 days) 0.965 ± 0.041.

With `CCOc1ccc2nc(S(N)(=O)=O)sc2c1` [Ethoxzolamide], the normalised cell viability is, setting by setting: (treatment time: 3 days) 1.05 ± 0.029; (treatment time: 6 days) 1.12 ± 0.13.

As for `CC1(C)S[C@@H]2[C@H](NC(=O)[C@H](N)c3ccccc3)C(=O)N2[C@H]1C(=O)O` [Ampicillin trihydrate], the normalised cell viability stood at 1.19 ± 0.051 (treatment time: 3 days) and 1.07 ± 0.038 (treatment time: 6 days).
